# Results from PubChem BioAssay AID1345082 (National Center for Advancing Translational Sciences (NCATS), 2018).
# Hit rate of the full screen: of about 94,000 compounds, about 4,000 (4.3%) were called active. This list was built around the results that the source calls inconclusive (neither active nor inactive); the mix of calls is not that of the screen. The call rests on the fitted dose curve; in most records, active means well fitted inhibition curve with a large enough effect; inconclusive means small, poorly fitted or top-dose-only effect; inactive means no such curve, though single readings can be large or run the other way. Where the call is inconclusive, the potency comes from a doubtful curve fit.
# Test: Cytotoxic Profiling in NIH 3T3 Cell Line of Diverse Libraries Using Quantitative High-Throughput Screening; further: nearly all actives have a fitted effect of over 55% in size
# Settings: NIH 3T3 viability, CellTiter-Glo ATP luminescence, 48-72 h; activity change, negative = cytotoxicity: at 96.7 µM (top of the series) unless noted; series mostly up to 96.7 µM
# Method in brief: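 Mouse fibroblast NIH 3T3 cells, 400 per well, received compound via pintool and were incubated for 48 or 72 hr prior to CellTiter-Glo ATP luminescence measurement.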
# On the % scale 0 is the no-effect control and ±100 the full control effect; potency means the concentration at half of the fitted maximal effect; tags describe the fitted curve by direction and shape.
SMILES,Potency,"activity change, negative = cytotoxicity",outcome
CN1c2cc(C(=O)Nc3ccc(Cl)cc3)ccc2C(=O)N2CCCCCC21 (centres undefined),"inconclusive: 14.1 µM [inhibitor, full curve, poor fit]",,
O=C1CCN(S(=O)(=O)c2ccccc2)CCCN(C(=O)CCCc2ccccc2)CCN1,"inconclusive: 70.8 µM [inhibitor, single point]",,
Cc1ccc(Cl)cc1NC(=O)N1C[C@@H](F)C[C@H]1C(=O)N1CCCCC1,"inconclusive: 70.8 µM [inhibitor, single point]",,
O=C(C1CCC1)N1CCC(c2nc(-c3ccc4nc[nH]c4c3)no2)CC1,"inconclusive: 89.1 µM [inhibitor, partial curve, poor fit]",,
CCn1c2c(c(=O)n1-c1ccccc1)CCN(CCCc1ccccc1)C2,"inconclusive: 89.1 µM [inhibitor, partial curve]",,
Cc1cccc2nc(C(=O)N3CCCC(c4[nH]ncc4-c4ccccc4)C3)cn12 (centres undefined),"inconclusive: 50.1 µM [inhibitor, partial curve, poor fit]",,
CNC(=O)c1cccc(-c2cnc3[nH]cc(CC(=O)N4CCC(OC)CC4)c3c2)c1,active: 89.1 µM,,
CN1C(=O)CC[C@]2(C(=O)NCc3ccc4c(c3)OCO4)CCCC[C@@H]12,,inactive: -2.74%,
COCCN1CCOc2nc(-c3ccc(F)c(Cl)c3)ncc2C1=O,"inconclusive: 89.1 µM [inhibitor, partial curve]",,
CN1C(=O)CCC2(CNC(=O)Cc3c[nH]c4ccccc34)CCCC=C12 (centres undefined),"inconclusive: 50.1 µM [inhibitor, partial curve, poor fit]",,
COc1ccc(C(=O)N2C[C@@H](F)C[C@H]2C(=O)N2CCCCC2)c(C)c1,"inconclusive: 70.8 µM [inhibitor, single point]",,
O=C(NCc1ccc(F)c(F)c1)c1ccc2nnc(-c3ccc(F)cc3)n2c1,"inconclusive: 44.7 µM [inhibitor, partial curve]",,
COc1ccc(Nc2ncc(-c3ccccc3OC)c3c2OCC3)cn1,"inconclusive: 70.8 µM [inhibitor, partial curve, poor fit]",,
CN1CCN(c2nc3c(c(=O)[nH]2)CCN(Cc2ccc(F)c(Cl)c2)CC3)CC1,"inconclusive: 44.7 µM [inhibitor, partial curve, poor fit]",,
CC(C)c1cc(CNC(=O)c2ccc(OC3CCN(C(=O)C4CC4)CC3)cc2)on1,,inactive: -29.1%,
CC(=O)c1c(C)nn(CC(=O)NC(C)c2cnn(-c3ccccc3C)c2C)c1C (centres undefined),,inactive: -2.36%,
Cc1cnc(C(=O)NC2C[C@H]3CC[C@@H](C2)N3C(=O)COc2ccc(Cl)cc2C)cn1 (some centres undefined),"inconclusive: 50.1 µM [inhibitor, partial curve, poor fit]",,
COc1cccc(CN2CCCC3(COc4ccccc4C(=O)N3)C2)c1 (centres undefined),"inconclusive: 100 µM [inhibitor, partial curve, poor fit]",,
O=C(CCn1ccc(=O)[nH]c1=O)NC1CCCN(CCCc2ccccc2)C1 (centres undefined),,inactive: -10%,
O=C1[C@H]2CN(Cc3ccc(Br)cc3)C[C@H]2C(=O)N1Cc1ccc2c(c1)OCO2,"inconclusive: 56.2 µM [inhibitor, single point]",,
CN(C)Cc1cc(C[C@@H]2C[C@H](NC(=O)Nc3ccc(F)cc3)C2(C)C)no1,"inconclusive: 63.1 µM [inhibitor, partial curve, poor fit]",,
CC(C)(C)OCC(O)CN1CCC(=O)N(Cc2ccccc2)Cc2cc(F)ccc21 (centres undefined),"inconclusive: 44.7 µM [inhibitor, partial curve, poor fit]",,

SMILES,Potency,"activity change, negative = cytotoxicity",outcome
O=C1NC(=O)C(c2ccc(-c3ccc4nc[nH]c(=O)c4c3)cc2)N1 (centres undefined),,inactive: -6.13%,
COCCn1cnc2ccc(-c3ccccc3C)nc2c1=O,"inconclusive: 44.7 µM [inhibitor, partial curve, poor fit]",,
Cc1ccccc1CC(=O)NCc1nnc2cc(-c3nc(C4CC4)no3)ccn12,,inactive: -11.8%,
Cc1cnc(C(=O)N[C@@H]2CCC[C@@H]2C(=O)N2CCN(CC(C)C)CC2)cn1,,inactive: 3.7%,
O=S(=O)(c1ccccc1C(F)(F)F)N1CCC2(CCCNC2)C1 (centres undefined),"inconclusive: 79.4 µM [inhibitor, partial curve, poor fit]",,
COc1ccc2nc(C[C@@H]3C[C@@H](C(C)C)[C@H](CNC4CCCCC4)C=C3C)[nH]c2c1,active: 22.4 µM,,
Cc1ccc(N2CCC(NC(=O)Cc3cccc(F)c3)C2=O)cc1 (centres undefined),active: 31.6 µM,,
CNC(=O)c1cc(C)nc2onc(C3CCCN3C(=O)c3ccc(OC)cc3)c12 (centres undefined),,inactive: -17.2%,
COc1ccc(CNC(=O)C2CCCN(Cc3cccc(-c4cccs4)c3)C2)cc1 (centres undefined),"inconclusive: 39.8 µM [inhibitor, partial curve, poor fit]",,
COCCNC(=O)C1CC(=O)N(c2n[nH]c3ccccc23)C1 (centres undefined),,,inactive
O=C(NCc1cccc(F)c1)c1cnc2n1CCN(CCc1ccccc1)CC2,"inconclusive: 50.1 µM [inhibitor, partial curve, poor fit]",,
COc1ccc([C@H]2CN(c3nnnn3-c3ccccc3)C[C@@H]2N)cc1,,inactive: -5.67%,
CC(C)c1ccc(CNC(=O)c2ccc3c(c2)N(C)C2CCCCN2C3=O)cc1 (centres undefined),"inconclusive: 50.1 µM [inhibitor, partial curve, poor fit]",,
COc1ccc(CC(=O)N2[C@@H](c3ccccc3)[C@@H](C(=O)O)C[C@]23CCCCN(C)C3=O)cc1,"inconclusive: 79.4 µM [inhibitor, partial curve, poor fit]",,
Cc1csc(NC(=O)[C@@H]2C[C@@H](c3ccc(F)cc3)N([S+](=O)([O-])c3ccccc3)C2)n1,"inconclusive: 50.1 µM [inhibitor, partial curve, poor fit]",,
COc1ccc(F)cc1-c1ccc(CN2CCC(NC(=O)C(C)(C)C)C2)cc1 (centres undefined),"inconclusive: 44.7 µM [inhibitor, partial curve, poor fit]",,
COc1cc(CNCCc2ccc(F)cc2)ccc1OCC(O)CN1CCSCC1 (centres undefined),"inconclusive: 56.2 µM [inhibitor, partial curve, poor fit]",,
COc1ccc(OC)c(NC(=O)Cn2c(-c3ccccc3)nc(C)c(CCO)c2=O)c1,,inactive: -22.4%,
Oc1ccc(-c2nc(C3CC3)nc3c2CCN(CC2CCCCC2)CC3)cc1,"inconclusive: 50.1 µM [inhibitor, partial curve, poor fit]",,
C#CCNC(=O)c1onc(-c2ccc(F)cc2)c1[C@H](C)O,,inactive: -36.1% [at 230 µM],
Cc1ccc2oc([C@H]3CCN(Cc4ccc(N(C)C)cc4)C3)nc2c1,"inconclusive: 79.4 µM [inhibitor, partial curve, poor fit]",,
CC1(c2ccccc2)N(Cc2ccccc2F)C(=O)OC12CCN(C(=O)c1cnccn1)CC2 (centres undefined),"inconclusive: 50.1 µM [inhibitor, partial curve, poor fit]",,

SMILES,Potency,"activity change, negative = cytotoxicity",outcome
O[C@@H]1CC(CNCC2CCCC2)(COc2ccc(C(F)(F)F)cn2)C[C@@H]1O (some centres undefined),,inactive: -16.7%,
COc1ccc(CNC(=O)C2CCCN2Cc2ccc(-c3cccc(OC)c3)cc2)cc1 (centres undefined),active: 39.8 µM,,
CCC(CC)C(=O)N1CCC(O)(c2csc(CN3CCc4ccccc4C3)n2)CC1,"inconclusive: 35.5 µM [inhibitor, partial curve, poor fit]",,
Cc1ccc(CN2CCC3(CC2)CN(c2ncccn2)CC3CO)cc1C (centres undefined),,inactive: -0.386%,
COCC1CN(C)CC12CCN(Cc1ccc(OC)cc1)CC2 (centres undefined),,inactive: -26.7%,
COc1ccc(-c2nnc3ccc(N4CCC(c5ccccc5)CC4)nn23)nc1,"inconclusive: 79.4 µM [inhibitor, partial curve, poor fit]",,
O=C(O)c1ccc(CN2C[C@@H](F)[C@@H](OCc3nc4ccc(C(F)(F)F)cc4[nH]3)C2)cc1,,inactive: -12.7%,
CN1CC(=O)N(c2ccccc2)Cc2c(NCC(C)(C)C)ncnc21,"inconclusive: 56.2 µM [inhibitor, partial curve, poor fit]",,
CC(C)c1noc(-c2cn(C3CCN(C(=O)c4ccoc4)CC3)nn2)n1,"inconclusive: 89.1 µM [inhibitor, partial curve, poor fit]",,
COC(=O)CNC(=O)c1ccc2oc(-c3cccnc3)nc2c1,,inactive: -23.4%,
CCOc1nccn2c(-c3ccc(CNC(=O)c4ccnn4C)cc3)cnc12,"inconclusive: 56.2 µM [inhibitor, partial curve, poor fit]",,
COc1ccc(N2C(=O)CSC23CCN(C(=O)Nc2ccc([N+](=O)[O-])cc2)CC3)cc1,"inconclusive: 15.8 µM [inhibitor, full curve, poor fit]",,
C#CCNC(=O)c1ccc2nnc(Cc3ccc(OC)cc3)n2c1,,inactive: -16.9% [at 138 µM],
Cc1ccsc1C(=O)N1CCC2(CC1)C(=O)N(c1cccc(F)c1)C2c1ccccc1 (centres undefined),"inconclusive: 20 µM [inhibitor, full curve]",,
O=C(NC1CCN(c2cnn(Cc3ccccc3)c(=O)c2)CC1)C1CCCCC1,,inactive: -15.5%,
COc1ccc(OCC(O)CN2CCC(=O)N(Cc3ccccc3)Cc3ccccc32)cc1 (centres undefined),"inconclusive: 56.2 µM [inhibitor, partial curve, poor fit]",,
CC(C)CN1CCC[C@H]1c1nc(-c2ccnc(N3CCOCC3)c2)no1,"inconclusive: 89.1 µM [inhibitor, partial curve]",,
O=C1CCN(S(=O)(=O)c2ccccc2)CCCN(Cc2cccc(OC(F)(F)F)c2)CCN1,"inconclusive: 35.5 µM [inhibitor, partial curve, poor fit]",,
CCOCCN1C(=O)COC[C@@H]1[C@H](O)c1ccc(NC(=O)COC)cc1,,inactive: -5.45% [at 138 µM],
CN(Cc1ccccc1)Cc1cccn1C,,inactive: -11.1% [at 174 µM],
